The target of test [1] is Myc-tagged NCOA4β (human) (UniProt Q13772). As to the kind of experiment: condition: 2 μg apoferritin per pulldown (immunoblot-based); pull-down; in vitro translated Myc-NCOA4 proteins held on anti-c-Myc agarose, mixed with horse spleen apoferritin (MYC-IP); 30 min at 4°C; wash 150 mM NaCl, 20 mM Tris pH 7.4, 2 mM DTT, 0.5% Nonidet P-40; immunoblot; only the binder purified. On the technique in general: Immunoblotting shows a protein as a band on a membrane.

By UniProt entry, the sequences of proteins in these tests, tags left out. Where a name states a change or a piece, a line headed by the entry shows the natural chain unless it says otherwise. Chains listed by the source or under a name are the forms on record and can include a tag or linker. Residues count along the entry.
UniProt Q13772: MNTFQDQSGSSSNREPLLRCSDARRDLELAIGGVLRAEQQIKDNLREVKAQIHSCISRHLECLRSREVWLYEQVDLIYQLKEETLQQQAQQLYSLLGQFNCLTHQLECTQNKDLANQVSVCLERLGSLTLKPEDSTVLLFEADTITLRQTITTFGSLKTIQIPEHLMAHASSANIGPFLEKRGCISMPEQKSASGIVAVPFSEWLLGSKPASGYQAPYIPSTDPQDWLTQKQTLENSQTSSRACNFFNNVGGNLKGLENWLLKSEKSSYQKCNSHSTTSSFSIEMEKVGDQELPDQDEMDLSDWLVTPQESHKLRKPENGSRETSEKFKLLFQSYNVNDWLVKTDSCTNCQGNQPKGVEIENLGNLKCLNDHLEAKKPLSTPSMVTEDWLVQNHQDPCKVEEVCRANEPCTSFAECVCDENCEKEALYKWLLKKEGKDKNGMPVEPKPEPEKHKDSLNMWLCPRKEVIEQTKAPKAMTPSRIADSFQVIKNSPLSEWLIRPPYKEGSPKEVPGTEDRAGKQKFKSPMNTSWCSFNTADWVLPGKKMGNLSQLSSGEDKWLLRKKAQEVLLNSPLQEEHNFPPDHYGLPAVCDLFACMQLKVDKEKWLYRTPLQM
Myc-tagged NCOA4-N-terminus (NCOA4 1-245): residues 1-245 of Q13772
Myc-tagged NCOA4-C-terminus (NCOA4 235-614): residues 235-614 of Q13772
NCOA4 383-522-GST: residues 383-522 of Q13772
NCOA4 485-509-GST: residues 485-509 of Q13772
Myc-tagged NCOA4β (Q13772, form named): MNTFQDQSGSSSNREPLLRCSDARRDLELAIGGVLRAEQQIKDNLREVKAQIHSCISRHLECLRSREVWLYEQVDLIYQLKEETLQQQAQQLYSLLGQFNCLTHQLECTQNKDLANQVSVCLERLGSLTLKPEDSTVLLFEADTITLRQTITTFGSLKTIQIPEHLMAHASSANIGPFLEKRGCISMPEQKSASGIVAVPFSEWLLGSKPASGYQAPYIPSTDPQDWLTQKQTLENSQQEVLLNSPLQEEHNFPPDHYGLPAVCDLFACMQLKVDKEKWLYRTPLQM
NCOA4 383-522 I489A/W497A-GST (Q13772, form named): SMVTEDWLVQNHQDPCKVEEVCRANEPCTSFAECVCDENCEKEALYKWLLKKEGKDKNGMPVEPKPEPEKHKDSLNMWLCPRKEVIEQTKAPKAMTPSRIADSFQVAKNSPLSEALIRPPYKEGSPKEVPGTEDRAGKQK
NCOA4 383-522-GST with deletion of amino acids 490-499 (Q13772, form named): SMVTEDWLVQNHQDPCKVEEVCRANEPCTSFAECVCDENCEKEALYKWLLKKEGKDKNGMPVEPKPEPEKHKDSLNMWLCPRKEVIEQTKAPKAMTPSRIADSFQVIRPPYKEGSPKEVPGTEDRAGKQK
UniProt O95714: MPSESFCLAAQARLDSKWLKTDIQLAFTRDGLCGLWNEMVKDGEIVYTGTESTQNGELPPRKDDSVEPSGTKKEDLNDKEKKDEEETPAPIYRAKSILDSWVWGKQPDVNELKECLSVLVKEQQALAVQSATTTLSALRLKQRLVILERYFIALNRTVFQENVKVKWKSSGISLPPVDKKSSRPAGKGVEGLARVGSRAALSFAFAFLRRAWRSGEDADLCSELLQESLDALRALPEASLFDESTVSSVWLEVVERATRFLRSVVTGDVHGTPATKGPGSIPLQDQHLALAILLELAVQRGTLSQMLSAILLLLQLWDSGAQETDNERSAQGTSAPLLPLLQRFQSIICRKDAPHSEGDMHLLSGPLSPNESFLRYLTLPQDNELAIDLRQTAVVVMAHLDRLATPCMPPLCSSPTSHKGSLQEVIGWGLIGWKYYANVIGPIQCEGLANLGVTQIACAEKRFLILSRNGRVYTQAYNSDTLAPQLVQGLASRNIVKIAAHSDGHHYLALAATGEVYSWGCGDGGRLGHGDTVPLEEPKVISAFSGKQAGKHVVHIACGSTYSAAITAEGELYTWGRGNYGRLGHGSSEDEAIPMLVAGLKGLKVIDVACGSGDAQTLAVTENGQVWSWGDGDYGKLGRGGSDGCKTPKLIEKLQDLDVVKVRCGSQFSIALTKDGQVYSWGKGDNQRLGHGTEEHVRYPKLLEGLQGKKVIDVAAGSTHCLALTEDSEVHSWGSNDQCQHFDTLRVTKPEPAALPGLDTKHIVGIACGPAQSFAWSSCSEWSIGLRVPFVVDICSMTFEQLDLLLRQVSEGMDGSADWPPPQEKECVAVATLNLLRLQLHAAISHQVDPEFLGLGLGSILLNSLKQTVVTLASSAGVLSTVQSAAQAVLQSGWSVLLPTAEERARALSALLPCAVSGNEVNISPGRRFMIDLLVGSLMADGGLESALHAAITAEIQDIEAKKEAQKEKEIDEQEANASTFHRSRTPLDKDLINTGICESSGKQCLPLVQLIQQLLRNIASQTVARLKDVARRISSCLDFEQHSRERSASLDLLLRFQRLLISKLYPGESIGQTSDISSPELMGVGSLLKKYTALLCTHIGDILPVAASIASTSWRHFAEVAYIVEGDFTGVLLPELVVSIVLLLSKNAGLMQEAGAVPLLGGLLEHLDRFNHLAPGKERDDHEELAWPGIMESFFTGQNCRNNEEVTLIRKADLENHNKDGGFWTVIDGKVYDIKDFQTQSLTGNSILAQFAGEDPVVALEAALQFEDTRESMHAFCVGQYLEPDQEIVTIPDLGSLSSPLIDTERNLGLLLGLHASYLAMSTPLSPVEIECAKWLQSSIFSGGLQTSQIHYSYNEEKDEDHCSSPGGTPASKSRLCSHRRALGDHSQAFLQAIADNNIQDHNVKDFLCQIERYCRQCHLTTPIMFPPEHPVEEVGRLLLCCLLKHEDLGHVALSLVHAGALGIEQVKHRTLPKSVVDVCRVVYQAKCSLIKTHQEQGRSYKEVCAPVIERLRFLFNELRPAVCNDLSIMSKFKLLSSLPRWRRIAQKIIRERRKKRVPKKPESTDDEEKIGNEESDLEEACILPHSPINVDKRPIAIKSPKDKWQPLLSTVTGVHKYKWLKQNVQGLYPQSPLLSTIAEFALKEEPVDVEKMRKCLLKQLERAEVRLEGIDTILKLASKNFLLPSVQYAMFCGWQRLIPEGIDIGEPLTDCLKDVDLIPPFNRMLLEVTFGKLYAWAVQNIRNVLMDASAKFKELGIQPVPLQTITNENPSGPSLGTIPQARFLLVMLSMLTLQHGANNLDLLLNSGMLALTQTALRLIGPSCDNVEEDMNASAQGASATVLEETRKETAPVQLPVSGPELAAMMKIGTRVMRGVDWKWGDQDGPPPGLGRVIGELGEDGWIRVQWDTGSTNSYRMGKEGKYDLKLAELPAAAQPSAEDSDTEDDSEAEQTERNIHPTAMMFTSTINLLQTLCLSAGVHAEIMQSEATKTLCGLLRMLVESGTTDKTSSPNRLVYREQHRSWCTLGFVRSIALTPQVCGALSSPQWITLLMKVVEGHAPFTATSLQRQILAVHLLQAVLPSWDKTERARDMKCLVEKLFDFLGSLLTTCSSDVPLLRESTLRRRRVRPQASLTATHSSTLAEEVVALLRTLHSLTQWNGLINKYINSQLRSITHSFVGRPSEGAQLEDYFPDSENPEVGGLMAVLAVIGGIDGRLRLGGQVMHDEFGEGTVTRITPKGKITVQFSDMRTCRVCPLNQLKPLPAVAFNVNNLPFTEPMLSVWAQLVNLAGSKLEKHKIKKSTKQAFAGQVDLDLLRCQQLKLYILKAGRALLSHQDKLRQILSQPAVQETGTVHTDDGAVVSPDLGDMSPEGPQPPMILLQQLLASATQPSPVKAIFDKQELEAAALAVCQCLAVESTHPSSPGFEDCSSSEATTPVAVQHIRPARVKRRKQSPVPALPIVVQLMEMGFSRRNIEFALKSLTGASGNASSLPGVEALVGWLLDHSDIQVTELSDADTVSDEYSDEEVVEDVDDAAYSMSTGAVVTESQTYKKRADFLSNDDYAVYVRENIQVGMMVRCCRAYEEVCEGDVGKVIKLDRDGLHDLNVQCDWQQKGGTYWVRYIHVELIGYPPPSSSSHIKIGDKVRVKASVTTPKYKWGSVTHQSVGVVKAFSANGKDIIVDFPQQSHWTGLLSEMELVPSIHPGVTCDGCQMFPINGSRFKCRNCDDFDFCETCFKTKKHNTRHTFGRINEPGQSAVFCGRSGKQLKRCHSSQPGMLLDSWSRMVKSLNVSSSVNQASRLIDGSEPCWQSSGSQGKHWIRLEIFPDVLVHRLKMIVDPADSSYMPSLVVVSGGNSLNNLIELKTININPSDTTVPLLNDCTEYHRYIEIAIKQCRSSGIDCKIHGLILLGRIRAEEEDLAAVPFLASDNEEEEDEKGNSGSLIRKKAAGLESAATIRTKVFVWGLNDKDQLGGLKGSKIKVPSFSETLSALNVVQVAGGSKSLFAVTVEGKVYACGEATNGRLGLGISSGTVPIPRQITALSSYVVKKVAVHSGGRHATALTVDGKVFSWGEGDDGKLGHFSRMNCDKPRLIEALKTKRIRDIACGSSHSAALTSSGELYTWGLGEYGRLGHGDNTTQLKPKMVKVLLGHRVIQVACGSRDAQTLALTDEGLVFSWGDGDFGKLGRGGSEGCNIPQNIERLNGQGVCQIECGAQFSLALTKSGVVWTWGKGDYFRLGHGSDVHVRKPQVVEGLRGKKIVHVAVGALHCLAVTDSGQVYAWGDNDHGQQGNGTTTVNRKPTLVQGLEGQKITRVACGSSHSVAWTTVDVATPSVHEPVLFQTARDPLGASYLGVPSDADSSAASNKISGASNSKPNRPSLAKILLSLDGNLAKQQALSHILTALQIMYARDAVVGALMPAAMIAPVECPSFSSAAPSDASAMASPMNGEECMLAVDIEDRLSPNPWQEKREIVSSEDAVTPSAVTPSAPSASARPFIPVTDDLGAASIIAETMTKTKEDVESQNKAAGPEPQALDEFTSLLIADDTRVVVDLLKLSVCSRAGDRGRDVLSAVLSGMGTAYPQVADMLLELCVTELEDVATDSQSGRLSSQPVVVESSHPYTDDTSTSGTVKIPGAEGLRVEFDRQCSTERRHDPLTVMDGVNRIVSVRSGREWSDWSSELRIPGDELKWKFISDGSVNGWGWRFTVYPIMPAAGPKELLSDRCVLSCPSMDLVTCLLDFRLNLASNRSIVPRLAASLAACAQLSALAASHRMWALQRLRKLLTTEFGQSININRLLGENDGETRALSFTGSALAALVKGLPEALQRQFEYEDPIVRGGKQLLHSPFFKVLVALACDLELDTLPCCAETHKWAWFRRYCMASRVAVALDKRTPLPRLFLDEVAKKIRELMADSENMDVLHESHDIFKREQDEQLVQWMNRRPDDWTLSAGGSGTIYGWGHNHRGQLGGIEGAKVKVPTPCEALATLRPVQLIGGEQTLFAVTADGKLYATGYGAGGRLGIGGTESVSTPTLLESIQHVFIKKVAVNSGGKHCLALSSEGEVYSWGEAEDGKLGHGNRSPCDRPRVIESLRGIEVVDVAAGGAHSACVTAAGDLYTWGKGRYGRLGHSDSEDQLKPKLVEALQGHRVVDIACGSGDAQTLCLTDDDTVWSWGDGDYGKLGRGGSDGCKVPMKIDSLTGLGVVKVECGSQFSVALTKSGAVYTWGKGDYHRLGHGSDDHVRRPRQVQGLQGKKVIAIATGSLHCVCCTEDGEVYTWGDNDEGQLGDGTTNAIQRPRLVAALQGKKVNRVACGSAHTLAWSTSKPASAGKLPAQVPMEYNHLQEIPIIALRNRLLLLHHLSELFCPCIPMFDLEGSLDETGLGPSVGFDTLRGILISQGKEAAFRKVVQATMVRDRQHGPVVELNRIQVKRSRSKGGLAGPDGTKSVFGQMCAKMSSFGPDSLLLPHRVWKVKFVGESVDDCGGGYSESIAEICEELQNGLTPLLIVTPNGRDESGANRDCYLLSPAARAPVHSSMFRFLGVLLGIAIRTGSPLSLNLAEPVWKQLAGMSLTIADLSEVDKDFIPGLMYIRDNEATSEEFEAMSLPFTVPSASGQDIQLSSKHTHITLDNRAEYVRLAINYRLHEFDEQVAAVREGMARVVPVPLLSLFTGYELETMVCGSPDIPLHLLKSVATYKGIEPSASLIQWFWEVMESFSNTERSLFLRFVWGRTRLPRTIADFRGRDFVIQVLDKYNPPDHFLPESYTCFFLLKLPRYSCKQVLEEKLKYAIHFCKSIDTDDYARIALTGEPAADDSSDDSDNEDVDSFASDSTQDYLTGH
FLAG-HA-HERC2 Fragment 3 (amino acids 1700-2800): residues 1700-2800 of O95714
FLAG-HA-HERC2 fragment 3-6 (residues 2540-2700): residues 2540-2700 of O95714
UniProt Q8MIP0: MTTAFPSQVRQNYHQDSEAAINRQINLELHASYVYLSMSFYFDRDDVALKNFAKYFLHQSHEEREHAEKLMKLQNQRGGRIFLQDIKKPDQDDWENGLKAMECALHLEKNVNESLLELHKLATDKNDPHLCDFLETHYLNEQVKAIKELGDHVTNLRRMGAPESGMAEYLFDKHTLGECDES
UniProt P02792: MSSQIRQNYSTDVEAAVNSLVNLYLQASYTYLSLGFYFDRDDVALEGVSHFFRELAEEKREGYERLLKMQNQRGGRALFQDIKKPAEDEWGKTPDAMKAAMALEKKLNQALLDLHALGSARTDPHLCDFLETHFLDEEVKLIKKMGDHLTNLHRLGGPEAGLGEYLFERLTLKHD

The target in test [2] is Myc-tagged NCOA4-N-terminus (NCOA4 1-245) (human) (UniProt Q13772). The description is as above.
Test [3] concerns the target NCOA4 383-522 I489A/W497A-GST (human) (UniProt Q13772). Description: pull-down; NCOA4-GST fragments on glutathione Sepharose 4B, mixed with 50 μg apoferritin from equine spleen; 30 min at 4°C; 150 mM NaCl, 20 mM Tris pH 7.4, 2 mM DTT, 0.5% Nonidet P-40; SDS-PAGE and Coomassie stain; both purified.
In test [4] the target is NCOA4 485-509-GST (human) (UniProt Q13772). The description is as above.
The target of test [5] is NCOA4 383-522-GST with deletion of amino acids 490-499 (human) (UniProt Q13772). Described as above.
Test [6] deals with NCOA4 485-509-GST (human) (UniProt Q13772). Description: pull-down; NCOA4-GST fragments on glutathione Sepharose 4B, mixed with 2 μg apoferritin from equine spleen; 30 min at 4°C; bound ferritin by immunoblot with FTH1 antibody; both purified.
Test [7] addresses Myc-tagged NCOA4α (full length) (human) (UniProt Q13772). Description: pull-down; in vitro translated Myc-NCOA4 proteins held on anti-c-Myc agarose, mixed with horse spleen apoferritin (MYC-IP); 30 min at 4°C; wash 150 mM NaCl, 20 mM Tris pH 7.4, 2 mM DTT, 0.5% Nonidet P-40; immunoblot; only the binder purified.
The target of test [8] is Myc-tagged NCOA4-C-terminus (NCOA4 235-614) (human) (UniProt Q13772). The description is as above.
Test [9] has as its target NCOA4-FLAG-HA (CTAP), wild type NCOA4α (human) (UniProt Q13772). As to the kind of experiment: co-IP; FLAG affinity purification of stably expressed NCOA4-FLAG-HA from 293T cells treated for 9 hr as indicated (100 μM DFO, 30 μM DFX, 0.05 mg/ml FAC); immunoblot for endogenous HERC2.
The target of test [10] is endogenous NCOA4 (human (endogenous in HCT116 and 293T)) (UniProt Q13772). As to the kind of experiment: co-IP; endogenous HERC2 or NCOA4 IP (Protein G agarose with specific antibodies) from 293T cells, untreated or loaded with FAC for 6 hr; immunoblot.
Test [11] has as its target NCOA4 I489A/W497A-FLAG-HA (CTAP) (human) (UniProt Q13772). Description: co-IP; FLAG affinity purification (anti-FLAG M2 magnetic beads) of NCOA4-FLAG-HA wild type or mutant from HCT116 control or NCOA4-knockout cells; 50 mM Tris-HCl pH 7.5, 150 mM NaCl, 0.5% Nonidet P40, 1 mM DTT; immunoblot.
Test [12] addresses NCOA4-FLAG-HA (CTAP), wild type NCOA4α (human) (UniProt Q13772). The description is as above.
Test [13] concerns the target FLAG-HA-HERC2 fragment 3-6 (residues 2540-2700) (human) (UniProt O95714). Description: co-IP; anti-FLAG IP of FLAG-HA-HERC2 fragments from 293T extracts, elution with 3× FLAG peptide; immunoblot for endogenous NCOA4.
For test [14], the target named is FLAG-HA-HERC2 Fragment 3 (amino acids 1700-2800) (human) (UniProt O95714). The test is described as above.
For test [15] the target is unchanged. As to the kind of experiment: condition: only cells treated with DFO (iron chelation) for 9 hr; co-IP; anti-FLAG IP of FLAG-tagged HERC2 F3 from 293T cells treated with DFO for 9 hr; immunoblot for endogenous NCOA4.
Test [16] deals with NCOA4 383-522-GST (human) (UniProt Q13772). As to the kind of experiment: pull-down; NCOA4 383-522-GST on glutathione Sepharose 4B, mixed with 50 μg recombinant FTH1-only or FTL-only complexes; 30 min at 4°C; 150 mM NaCl, 20 mM Tris pH 7.4, 2 mM DTT, 0.5% Nonidet P-40; Coomassie stain; both purified.

This note sets out measurements from article PMC4592949.

These are yes or no findings as the source states them, for the method shown. For some assays here: In cells and extracts the contact can be indirect. Some results given as binding are weak or reduced against the parent protein; the word gives no strength.

“apoferritin purified from horse spleen (containing both FTH1 and FTL) (from UniProt Q8MIP0 1-182; P02791 1-175) (complex)”: the binding entry in test [1] was “no binding”; in test [2], “no binding”; in [3] it was “no binding (tested: 50 μg apoferritin per pulldown)”; in test [4] it was “binds weakly”; in test [5], “no binding (tested: 50 μg apoferritin per pulldown)”; in [6], “binds weakly”. For the same substance, the binding entry in [7] and in test [8] was “binds” throughout.

As to “endogenous HERC2 (from UniProt O95714 1-4834)”, the binding result in test [9], in [10], in test [11] and in test [12] was “binds” throughout.

As to “endogenous NCOA4 (from UniProt Q13772 1-614)”, the binding result in test [13] was “binds”; in test [14] it was “binds”; in test [15], “no binding”; in test [11], “binds”.

As for “recombinant FTL-only ferritin complex (from UniProt P02792 1-175)”, the binding result in test [16] is given as “no binding (tested: 50 μg of purified protein per pulldown)”.
